Laboratory results as given in PubChem BioAssay AID924 (National Center for Advancing Translational Sciences (NCATS), 2007).
Screen size: about 130,000 compounds; about 1,200 (0.92%) were called active. The inconclusive results got no clear call from the source; some entries with a clear call stand among them for comparison. Calls come from the whole dose curve; as a rule, active = well fitted cell-killing curve with a large enough effect; inconclusive = small, poorly fitted or top-dose-only effect; inactive = no such curve, though single readings can be large or run the other way. A potency beside an inconclusive call is a rough fit, not a confirmed value.

test: qHTS Screen for Compounds that Selectively Target Cancer Cells with p53 Mutations: Cytotoxicity of p53ts Cells at the Permissive Temperature; conditions: H1299-p53A138V at 32C, ATP luminescence viability, 24 h; activity change, negative = cytotoxicity: at 46.1 µM (top of the series); note: nearly all actives have a fitted effect of over 55% in size;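 for activity change, negative = cytotoxicity: 0% = DMSO and -100% = full killing by reference compound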
Text: NIH Chemical Genomics Center [NCGC] NIH Molecular Libraries Screening Centers Network [MLSCN] MLSCN Grant: 1 X01 MH079844-01 Assay Submitter (PI): Dr. SUN, YI, University of Michigan NCGC Assay Overview: Synthetic Lethal Screen for Compounds to Kill Cancer Cells with p53 Mutation. Tumor suppressor gene p53 serves as a major cellular barrier against tumorigenesis. […] The goal of this screening is to identify small molecule probes that selectively kill cancer cells with mutations in p53. This screening was carried out using two lines of H1299 lung cancer cells. The H1299-p53 A138V line express a temperature sensitive p53 mutant (p53ts) in which the mutant p53 protein (A138V) is in the mutant confirmation when grown at 39C (the nonpermissive temperature) and in the wild type conformation when grown at 32C (the permissive temperature). A H1299-neo line (p53 null) grown at both 39C and 32C were used as counter-screens to filter out false positive associated with temperature shifting. The small molecular compounds that selectively target mutant p53-containing cancer cells were selected as candidate probes for further study. A cytotoxicity assay based on the measurement of ATP contents in cells was used in this screen. Concentration-responses of all the compounds in the library collection were determined in qHTS using the cell lines and temperature conditions as above.
NCGC Assay Protocol Summary: Both the H1299-p53A138V and H1299-neo cell lines were provided by Dr.Yi Sun, a PI at the University Michigan. The cells were maintained and cultured at 37C. The resuspended frozen cells were used to plate the cells in the 1536-well assay plates at a density of 600 cells per well in 5 ul medium. The assay plates with the cells were incubated at 37C for 16 to 30 hours before the experiments. The library compounds in DMSO solution were added to the cells in assay plates and incubated 24 hours at 39C (for mutant p53 conformation) or 32C (for normal p53 conformation as control). An ATP_lite assay kit (PerkinElmer) was used to determine the cell viability. Tomaxifen (100uM) was used as the positive control for cell killing. Data were normalized to the controls for basal activity (DMSO only) and 100% killing (100uM tamoxifen). AC50 values were determined from concentration-response data modeled with the standard Hill equation. P53 assay protocol: 1. Reagent; 5 uL H1299-p53A138V or H1299-neo cell cells/well 2. Time; overnight; 37C incubation 3. Compounds; 23 nL; 5.9 nM to 46 uM 4. Controls; 23 nL; Tamoxifen 100 uM 5. Time; 24 hr; 37C incubation 6. Reagent; 3 uL; ATP_Lite reagent 7. Time; 20 min; Room Temperature 8. Detection; Luminescence; Viewlux plate reader Keywords: p53, synthetic lethal, cancer, cell viability, cytotoxicity, H1299 cell line, luminescence, MLSMR, MLSCN, NIH Roadmap, qHTS, NCGC
Potency is the fitted concentration of half-maximal effect; tags give direction and shape of the fitted curve.

**Q.** For `O=C(Nc1ccc(OC(F)(F)F)cc1)c1cc2ccccn2n1`, which Potency is on record?
**A.** inconclusive: 7.94 µM [cytotoxic, partial curve]

**Q.** Which “activity change, negative = cytotoxicity” value does the source give for `O=C(NCCc1csc2nc(-c3ccccc3F)nn12)c1ccco1` here?
**A.** inactive: -3.33%

**Q.** With `COc1cccc(NC(=O)Nc2cccc(-c3cn4cccnc4n3)c2)c1` as the compound, how does the Potency read?
**A.** inconclusive: 12.6 µM [cytotoxic, partial curve]

**Q.** Which Potency does the source give for `COc1cc(/C=C/C(=O)c2cccs2)cc(OC)c1OC` here?
**A.** active: 6.31 µM

**Q.** With `Cc1nc2c(C(=O)NCc3ccccc3)c[nH]n2c(=O)c1Cc1ccccc1Cl` as the compound, how does the Potency read?
**A.** inconclusive: 20 µM [cytotoxic, single point]

**Q.** For `CCC[C@@H]1C[C@@]1(CCC)C(NP(=O)(c1ccccc1)c1ccccc1)c1ccc(Cl)cc1` (stereo partly drawn), which Potency is on record?
**A.** inconclusive: 31.6 µM [cytotoxic, single point]

**Q.** Which Potency does the source give for `CCOC(=O)c1c(C)nc2c3ccccc3ccn12` here?
**A.** inconclusive: 12.6 µM [cytotoxic, partial curve]

**Q.** For `COc1cc(CN2CCN(c3cccc(C)c3C)CC2)cc(Br)c1O`, which Potency is on record?
**A.** inconclusive: 31.6 µM [cytotoxic, single point]

**Q.** Which “activity change, negative = cytotoxicity” value does the source give for `CCOC(=O)CCN1CCN(C(=O)c2ccc(-n3c(=O)c(=O)[nH]c4ccccc43)cc2)CC1` here?
**A.** inactive: -4.55%

**Q.** For `CCCCCS(=O)(=O)c1oc(-c2cccs2)nc1S(=O)(=O)c1ccc(C)cc1`, which Potency is on record?
**A.** inconclusive: 25.1 µM [cytotoxic, single point]

**Q.** For `CN1CCN(c2ncc3nc(-c4cccc(C#N)c4)c(=O)n(Cc4ccc(F)cc4)c3n2)CC1`, which Potency is on record?
**A.** inconclusive: 15.8 µM [cytotoxic, single point]

**Q.** For `Cc1cccc(OCC(=O)N(Cc2cccs2)c2ccc(Cl)cc2)c1C`, which Potency is on record?
**A.** inconclusive: 35.5 µM [cytotoxic, single point]

**Q.** Which “activity change, negative = cytotoxicity” value does the source give for `CCOc1ccccc1C1C(C(=O)N2CCCCC2)=C(C)Nc2nc3ccccc3n21` (stereo not drawn) here?
**A.** inactive: 15.6%

**Q.** For `O=C(NCC1CCN(Cc2cccc(Cl)c2)CC1)Nc1cc(Cl)ccc1Cl`, which Potency is on record?
**A.** inconclusive: 20 µM [cytotoxic, single point]

**Q.** Which “activity change, negative = cytotoxicity” value does the source give for `Cc1ccc(OCC(=O)Nc2nnc(SCc3cc(=O)c4ccccc4[nH]3)s2)cc1` here?
**A.** inactive: -2.59%

**Q.** Which “activity change, negative = cytotoxicity” value does the source give for `CC(=O)/C(=N\Nc1ccccc1)Oc1ccc([N+](=O)[O-])cc1` here?
**A.** inactive: -5.48%

**Q.** With `Cc1ccc(-c2nc3sc(CCNC(=O)c4ccc(Br)o4)c(C)n3n2)cc1` as the compound, how does the Potency read?
**A.** inconclusive: 17.8 µM [cytotoxic, partial curve]

**Q.** Which Potency does the source give for `Cc1c(C)c2ccc(OCc3ccc(C(=O)O)o3)c(C)c2oc1=O` here?
**A.** inconclusive: 15.8 µM [cytotoxic, single point]

**Q.** Which “activity change, negative = cytotoxicity” value does the source give for `Cc1ccc(Cn2c(C(=O)NCc3ccccc3Cl)cc3sccc32)cc1` here?
**A.** inactive: 6.55%

**Q.** Which “activity change, negative = cytotoxicity” value does the source give for `O=C(CCC(=O)N1CC2CCCN2c2ccccc21)NCc1ccc(Cl)cc1` (stereo not drawn) here?
**A.** inactive: 10.2%

**Q.** With `O=C1CSC(c2cccnc2)N1C1CCCCC1` (stereo not drawn) as the compound, how does the “activity change, negative = cytotoxicity” value read?
**A.** inactive: 0.195%

**Q.** Which “activity change, negative = cytotoxicity” value does the source give for `Cc1sc2ncnc(NCC(c3ccco3)N(C)C)c2c1C` (stereo not drawn) here?
**A.** inactive: 1.52%

**Q.** For `CNc1ncnc2c1cnn2-c1ccc(C)c(C)c1`, which Potency is on record?
**A.** inconclusive: 12.6 µM [cytotoxic, partial curve]

**Q.** Which Potency does the source give for `COc1ccc(Br)cc1CNC(=O)C1CCCN(S(C)(=O)=O)C1` (stereo not drawn) here?
**A.** inconclusive: 25.1 µM [cytotoxic, single point]

**Q.** For `O=C1C2C3CCCC3=C3CCCC3C2C(=O)N1c1ccc(Cl)cc1` (stereo not drawn), which “activity change, negative = cytotoxicity” value is on record?
**A.** inactive: -16.4%

**Q.** With `COc1ccc(NC(=O)Cn2c(=O)n(Cc3nc(-c4ccccc4)no3)c(=O)c3ccccc32)cc1Cl` as the compound, how does the Potency read?
**A.** inconclusive: 31.6 µM [cytotoxic, single point]

**Q.** Which Potency does the source give for `C[C@]12CCC3c4ccc(O)cc4CCC3C1CCC2OC(=O)CCC1CCCC1` (stereo partly drawn) here?
**A.** inconclusive: 31.6 µM [cytotoxic, single point]

**Q.** With `Cc1cccc(N2CCN(CCNC(=O)Nc3ccc(Cl)cc3)CC2)c1C` as the compound, how does the Potency read?
**A.** inconclusive: 31.6 µM [cytotoxic, single point]

**Q.** For `COc1cccc(Cn2c(=O)cnc3cnc(N(C)C)nc32)c1`, which “activity change, negative = cytotoxicity” value is on record?
**A.** inactive: -4.13%

**Q.** For `CCCCOc1ccccc1CC1C(=O)Nc2ccc(Br)cc21` (stereo not drawn), which Potency is on record?
**A.** inconclusive: 31.6 µM [cytotoxic, single point]

**Q.** With `Nc1nc(-c2ccc3c(c2)OCCO3)cs1` as the compound, how does the Potency read?
**A.** inconclusive: 15.8 µM [cytotoxic, single point]

**Q.** For `Brc1ccc(-c2nnc(-c3ccccc3Br)o2)cc1`, which Potency is on record?
**A.** inconclusive: 7.94 µM [cytotoxic, partial curve]

**Q.** For `CO/N=C\[C@@H](NS(=O)(=O)c1ccc(C)cc1)[C@H](C)/C=C\CC(=O)OC`, which activity change, negative = cytotoxicity is on record?
**A.** inactive: 4.06% [at 9.22 µM]

**Q.** For `CC(=O)Nc1ccc(NC(=O)CCCn2nc(C)c3sc4ccccc4c3c2=O)cc1`, which Potency is on record?
**A.** inconclusive: 12.6 µM [cytotoxic, single point]

**Q.** Which “activity change, negative = cytotoxicity” value does the source give for `CCOc1ccc(N(C)S(=O)(=O)c2ccc3c(c2)CCCN3C(C)=O)cc1` here?
**A.** inactive: 1.64%

**Q.** With `CCOC(=O)c1ccc(NC(=O)N2CCc3ccccc32)cc1` as the compound, how does the Potency read?
**A.** inconclusive: 6.31 µM [cytotoxic, partial curve]

**Q.** With `COc1cc2c(cc1OC)n(Cc1cccc(C(F)(F)F)c1)c(=O)n1nc(-c3ccccc3)nc21` as the compound, how does the “activity change, negative = cytotoxicity” value read?
**A.** inactive: -1.12%

**Q.** For `O=C(Nc1ccc(F)cc1)c1csc2c1CCCCC2`, which Potency is on record?
**A.** active: 15.8 µM
